Experimental data taken from the CheMixHub viscosity set.
Where “and” joins values, the source holds several entries; their conditions need not be identical. Equal values may be shown once. Further values from the same series stand in other lists.

Experiment: xn = mol fraction of the nth substance listed

C1COCCO1 + O
Conditions	viscosity
311.15 K, 101 kPa, x1 = 0.8686	1.004 mPa·s
311.15 K, 101 kPa, x1 = 0.9092	0.9862 mPa·s
311.15 K, 101 kPa, x1 = 0.976	0.962 mPa·s
311.15 K, 101 kPa, x2 = 0.0145	0.9547 mPa·s
313.15 K, 101 kPa, x1 = 0.2	1.327 mPa·s
313.15 K, 101 kPa, x1 = 0.4	1.273 mPa·s
313.15 K, 101 kPa, x1 = 0.6	1.087 mPa·s
313.15 K, 101.3 kPa, x2 = 0.09407	0.944 mPa·s
313.15 K, 101.3 kPa, x2 = 0.2053	0.9835 mPa·s
313.15 K, 101.3 kPa, x2 = 0.7952	1.376 mPa·s
313.15 K, 101.3 kPa, x2 = 0.8661	1.25 mPa·s and 1.251 mPa·s
313.15 K, 101.3 kPa, x2 = 0.9391	0.9756 mPa·s and 0.9755 mPa·s
313.15 K, 101.3 kPa, x2 = 0.9742	0.7973 mPa·s and 0.7976 mPa·s
313.15 K, 101.32 kPa, x1 = 0.02221	0.7386 mPa·s
313.15 K, 101.32 kPa, x1 = 0.04863	0.863 mPa·s
313.15 K, 101.32 kPa, x1 = 0.08057	0.9919 mPa·s
313.15 K, 101.32 kPa, x1 = 0.5367	1.091 mPa·s
313.15 K, 101.32 kPa, x1 = 0.7953	0.909 mPa·s
313.15 K, 101.32 kPa, x1 = 0.8686	0.9003 mPa·s
313.15 K, 101.32 kPa, x1 = 0.9529	0.883 mPa·s
313.15 K, 101.33 kPa, x1 = 0.0999	1.138 mPa·s
313.15 K, 101.33 kPa, x1 = 0.1999	1.361 mPa·s
313.15 K, 101.33 kPa, x1 = 0.2998	1.377 mPa·s
313.15 K, 101.33 kPa, x1 = 0.3982	1.302 mPa·s
313.15 K, 101.33 kPa, x1 = 0.4981	1.204 mPa·s
313.15 K, 101.33 kPa, x1 = 0.5	1.197 mPa·s
313.15 K, 101.33 kPa, x1 = 0.537	1.166 mPa·s
313.15 K, 101.33 kPa, x1 = 0.5981	1.112 mPa·s
313.15 K, 101.33 kPa, x1 = 0.648	1.069 mPa·s
313.15 K, 101.33 kPa, x1 = 0.6997	1.038 mPa·s
313.15 K, 101.33 kPa, x1 = 0.716	1.023 mPa·s
313.15 K, 101.33 kPa, x1 = 0.795	0.978 mPa·s
313.15 K, 101.33 kPa, x1 = 0.7996	0.9799 mPa·s
313.15 K, 101.33 kPa, x1 = 0.846	0.956 mPa·s
313.15 K, 101.33 kPa, x1 = 0.9	0.943 mPa·s
313.15 K, 101.33 kPa, x1 = 0.918	0.937 mPa·s
316.15 K, 101 kPa, x1 = 0.00206	0.6287 mPa·s
316.15 K, 101 kPa, x1 = 0.00628	0.6488 mPa·s
316.15 K, 101 kPa, x1 = 0.01516	0.691 mPa·s
316.15 K, 101 kPa, x1 = 0.03482	0.7825 mPa·s
316.15 K, 101 kPa, x1 = 0.05303	0.8619 mPa·s
316.15 K, 101 kPa, x1 = 0.07366	0.9433 mPa·s
316.15 K, 101 kPa, x1 = 0.08413	0.9807 mPa·s
316.15 K, 101 kPa, x1 = 0.1114	1.065 mPa·s
316.15 K, 101 kPa, x1 = 0.1433	1.14 mPa·s
316.15 K, 101 kPa, x1 = 0.1726	1.188 mPa·s
316.15 K, 101 kPa, x1 = 0.2065	1.223 mPa·s
316.15 K, 101 kPa, x1 = 0.2501	1.242 mPa·s
316.15 K, 101 kPa, x1 = 0.3029	1.238 mPa·s
316.15 K, 101 kPa, x1 = 0.356	1.215 mPa·s
316.15 K, 101 kPa, x1 = 0.4203	1.173 mPa·s
316.15 K, 101 kPa, x1 = 0.4996	1.11 mPa·s
316.15 K, 101 kPa, x1 = 0.5367	1.08 mPa·s
316.15 K, 101 kPa, x1 = 0.5999	1.033 mPa·s
316.15 K, 101 kPa, x1 = 0.6479	1.002 mPa·s
316.15 K, 101 kPa, x1 = 0.7309	0.9596 mPa·s
316.15 K, 101 kPa, x1 = 0.7621	0.9469 mPa·s
316.15 K, 101 kPa, x1 = 0.7953	0.9348 mPa·s
316.15 K, 101 kPa, x1 = 0.8686	0.9128 mPa·s
316.15 K, 101 kPa, x1 = 0.9092	0.9036 mPa·s
316.15 K, 101 kPa, x1 = 0.976	0.8919 mPa·s
316.15 K, 101 kPa, x2 = 0.0145	0.8898 mPa·s
318.15 K, 101.33 kPa, x1 = 0.0999	1.023 mPa·s
318.15 K, 101.33 kPa, x1 = 0.1999	1.222 mPa·s
318.15 K, 101.33 kPa, x1 = 0.2998	1.241 mPa·s
318.15 K, 101.33 kPa, x1 = 0.3982	1.18 mPa·s
318.15 K, 101.33 kPa, x1 = 0.4981	1.099 mPa·s
318.15 K, 101.33 kPa, x1 = 0.5981	1.02 mPa·s
318.15 K, 101.33 kPa, x1 = 0.6997	0.9556 mPa·s
318.15 K, 101.33 kPa, x1 = 0.7996	0.9063 mPa·s
318.15 K, 101.33 kPa, x1 = 0.9	0.8757 mPa·s
320.15 K, 101 kPa, x1 = 0.00206	0.5855 mPa·s
320.15 K, 101 kPa, x1 = 0.00628	0.5992 mPa·s
320.15 K, 101 kPa, x1 = 0.01516	0.6277 mPa·s
320.15 K, 101 kPa, x1 = 0.03482	0.7054 mPa·s
320.15 K, 101 kPa, x1 = 0.05303	0.782 mPa·s
320.15 K, 101 kPa, x1 = 0.07366	0.8648 mPa·s
320.15 K, 101 kPa, x1 = 0.08413	0.9037 mPa·s
320.15 K, 101 kPa, x1 = 0.1114	0.9936 mPa·s
320.15 K, 101 kPa, x1 = 0.1433	1.066 mPa·s
320.15 K, 101 kPa, x1 = 0.1726	1.113 mPa·s
320.15 K, 101 kPa, x1 = 0.2065	1.144 mPa·s
320.15 K, 101 kPa, x1 = 0.2501	1.159 mPa·s
320.15 K, 101 kPa, x1 = 0.3029	1.158 mPa·s
320.15 K, 101 kPa, x1 = 0.356	1.146 mPa·s
320.15 K, 101 kPa, x1 = 0.4203	1.118 mPa·s
320.15 K, 101 kPa, x1 = 0.4996	1.059 mPa·s
320.15 K, 101 kPa, x1 = 0.5367	1.04 mPa·s
320.15 K, 101 kPa, x1 = 0.5999	0.9961 mPa·s
320.15 K, 101 kPa, x1 = 0.6479	0.9686 mPa·s
320.15 K, 101 kPa, x1 = 0.7309	0.9325 mPa·s
320.15 K, 101 kPa, x1 = 0.7621	0.9195 mPa·s
320.15 K, 101 kPa, x1 = 0.7953	0.9079 mPa·s
320.15 K, 101 kPa, x1 = 0.8686	0.8793 mPa·s
320.15 K, 101 kPa, x1 = 0.9092	0.8647 mPa·s
320.15 K, 101 kPa, x1 = 0.976	0.843 mPa·s
320.15 K, 101 kPa, x2 = 0.0145	0.8361 mPa·s
323.15 K, 101.33 kPa, x1 = 0.0999	0.9254 mPa·s
323.15 K, 101.33 kPa, x1 = 0.1999	1.102 mPa·s
323.15 K, 101.33 kPa, x1 = 0.2998	1.124 mPa·s
323.15 K, 101.33 kPa, x1 = 0.3982	1.074 mPa·s
323.15 K, 101.33 kPa, x1 = 0.4981	1.006 mPa·s
323.15 K, 101.33 kPa, x1 = 0.5981	0.9385 mPa·s
323.15 K, 101.33 kPa, x1 = 0.6997	0.8833 mPa·s
323.15 K, 101.33 kPa, x1 = 0.7996	0.8408 mPa·s
323.15 K, 101.33 kPa, x1 = 0.9	0.8148 mPa·s
